Assay results as given in PubChem BioAssay AID2101 (National Center for Advancing Translational Sciences (NCATS), 2009).
In all, about 330,000 compounds went through this assay and about 300 (0.091%) were called active. The inconclusive results got no clear call from the source; some entries with a clear call stand among them for comparison. Calls come from the whole dose curve; as a rule, active = well fitted inhibition curve with a large enough effect; inconclusive = small, poorly fitted or top-dose-only effect, or effect the other way, or another doubt; inactive = no such curve, though single readings can be large or run the other way. No potency is given beside an inconclusive call; the fits are too rough.

Biological target: Lysosomal acid glucosylceramidase (Homo sapiens) (UniProt P04062)
Assay: qHTS Assay for Inhibitors and Activators of N370S glucocerebrosidase as a Potential Chaperone Treatment of Gaucher Disease;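 for activity change, negative = inhibition: 0% = full enzyme activity and -100% = no enzyme basal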
Settings: N370S GC spleen homogenate, 4MU-glucoside fluorescence; activity change, negative = inhibition: at 59.4 µM (top of the series) unless noted
Potency is the fitted concentration of half-maximal effect.

**Q.** Which Potency does the source give for `COc1ccc(-c2noc(-c3cccc(Cl)c3)n2)cc1OC` here?
**A.** Its Potency is inconclusive [inhibitor, single point].

**Q.** For `Cc1ccc(C(C)NC(=O)c2cc3ccccc3oc2=O)cc1C` (stereo not drawn), which Potency is on record?
**A.** The Potency was inconclusive [activator, partial curve].

**Q.** Which Potency does the source give for `COc1ccc(N2C(=O)CC(N3CCC(C(N)=O)CC3)C2=O)cc1` (stereo not drawn) here?
**A.** Its Potency is inconclusive [inhibitor, partial curve].

**Q.** How did the Potency turn out when `CN(C)CCCN(C(=O)c1ccc(C(=O)c2ccccc2)cc1)c1nc2cc3c(cc2s1)OCO3` was run?
**A.** Its Potency is inconclusive [inhibitor, full curve].

**Q.** Which Potency does the source give for `CSc1nnc(-c2cccn(Cc3ccccc3)c2=O)o1` here?
**A.** The Potency was inconclusive [activator, partial curve].

**Q.** For `CCOC(=O)c1[nH]c2ccccc2c1NC(=S)Nc1cc(C)ccc1C`, which Potency is on record?
**A.** Its Potency is “inactive”.

**Q.** `COc1ccc(OC2C=CC(c3ccccc3)OC2CO)c(C(C)=O)c1` (stereo not drawn) was tested. Which activity change, negative = inhibition did it give?
**A.** The activity change, negative = inhibition was inactive: 0.0741% [at 12.8 µM].

**Q.** Which Potency does the source give for `COc1ccccc1OC(=O)CN1C(=O)c2ccccc2C1=O` here?
**A.** Its Potency is inconclusive [inhibitor, full curve, poor fit].

**Q.** For `O=C(c1ccc2c3c(cccc13)CC2)C1CCCN(Cc2ccc(OCCO)cc2)C1` (stereo not drawn), which Potency is on record?
**A.** Its Potency is inconclusive [inhibitor, full curve].

**Q.** For `CCCCC[C@H](O)/C=C/[C@H]1OC(O)C[C@H](O)[C@@H]1C/C=C\CC(=O)O` (stereo partly drawn), which Potency is on record?
**A.** The Potency was “inactive”.

**Q.** With `Clc1ccc(CN2C3=NCCCN3c3ccccc32)c(Cl)c1` as the compound, how does the Potency read?
**A.** The Potency was “inactive”.

**Q.** `OCCN1CCN(CC(O)COc2ccc(C34CC5CC(CC(C5)C3)C4)cc2)CC1` (stereo not drawn) was tested. Which Potency did it give?
**A.** Its Potency is inconclusive [inhibitor, partial curve].

**Q.** Which Potency does the source give for `COc1ccc(N2C(=O)[C@@H]3[C@H](C2=O)[C@H](C(C)=O)N2c4ccccc4C=C[C@@H]32)cc1` here?
**A.** The Potency was inconclusive [inhibitor, partial curve].

**Q.** Which Potency does the source give for `Cc1nnc(-c2ccccc2)c[n+]1[O-]` here?
**A.** The Potency was inconclusive [inhibitor, single point].

**Q.** `CCOc1ccc(C)cc1S(=O)(=O)n1cnc2ccccc21` was tested. Which Potency did it give?
**A.** The Potency was inconclusive [activator, single point].

**Q.** `Cc1ccc(OCC(=O)N2CCN(C(=O)Cc3ccccc3)CC2)cc1` was tested. Which Potency did it give?
**A.** Its Potency is inconclusive [inhibitor, full curve, poor fit].

**Q.** For `CCCCC(c1nnnn1C1CCCC1)N1CCN(C2CCCC2)CC1` (stereo not drawn), which Potency is on record?
**A.** The Potency was inconclusive [activator, partial curve].

**Q.** `COc1ccccc1-c1ccc(Nc2cccc(C(C)=O)c2)nn1` was tested. Which Potency did it give?
**A.** The Potency was “inactive”.

**Q.** Which Potency does the source give for `O=C(NCC(=O)N1CCCCC1)c1ccc(Cl)cc1Cl` here?
**A.** Its Potency is inconclusive [inhibitor, single point].

**Q.** For `CCN(CC)CCn1c(-c2ccccc2)nc2c(NCCOC)nc(C)nc21`, which Potency is on record?
**A.** Its Potency is “inactive”.

**Q.** Which Potency does the source give for `NS(=O)(=O)c1ccc(CNC(=S)Nc2ccc(F)c(Cl)c2)cc1` here?
**A.** The Potency was inconclusive [activator, single point].

**Q.** Which Potency does the source give for `Oc1ccccc1/C=N/NC(=S)NC1CC2C=CC1C2` (stereo not drawn) here?
**A.** The Potency was inconclusive [activator, partial curve, poor fit].

**Q.** Which Potency does the source give for `CCOc1ccc(-n2nc3c(SCCN4CCCC4)nnc(C)c3c2C)cc1` here?
**A.** The Potency was inconclusive [inhibitor, single point].

**Q.** `Cc1ccc(C(=O)OC2OC(=O)C(Cl)=C2N2CCOCC2)cc1` (stereo not drawn) was tested. Which Potency did it give?
**A.** The Potency was inconclusive [activator, partial curve].

**Q.** For `COc1cccc(-c2cc(C(F)(F)F)nc(N3CCC(C)CC3)n2)c1`, which Potency is on record?
**A.** Its Potency is inconclusive [inhibitor, partial curve].

**Q.** For `COc1ccc(C(CC(=O)N2CCCC2)c2c(OC)cc(OC)c3ccc(=O)oc23)cc1` (stereo not drawn), which Potency is on record?
**A.** The Potency was inconclusive [activator, single point].

**Q.** How did the Potency turn out when `O=c1[nH]c(-c2ccccc2)nn1-c1ccc(Br)cc1Br` was run?
**A.** The Potency was inconclusive [activator, partial curve].

**Q.** `COc1ccc2c(c1)c(/C=N/Nc1nc3ccccc3[nH]1)c(C)n2C` was tested. Which Potency did it give?
**A.** Its Potency is inconclusive [inhibitor, single point].

**Q.** How did the Potency turn out when `COc1ccc(NC(=O)COC(=O)c2c3c(nc4ccccc24)CCCC3)cc1` was run?
**A.** The Potency was inconclusive [inhibitor, full curve, poor fit].

**Q.** Which Potency does the source give for `COC(=O)C1=CN(CC2CCCO2)C=C(C(=O)OC)C1c1ccsc1` (stereo not drawn) here?
**A.** The Potency was inconclusive [activator, partial curve].

**Q.** For `O=C(NCc1nnc(SCC(=O)N2CCCC2)o1)c1ccccc1`, which Potency is on record?
**A.** Its Potency is inconclusive [inhibitor, single point].

**Q.** `Cc1cccc2cc(/C=C3\N=C(c4ccccc4)OC3=O)c(N3CCOCC3)nc12` was tested. Which Potency did it give?
**A.** Its Potency is “inactive”.

**Q.** For `COc1ccc(NC(=O)COc2ccc3c(C)cc(=O)oc3c2)cc1S(=O)(=O)N1CCCCC1`, which Potency is on record?
**A.** The Potency was inconclusive [activator, single point].

**Q.** For `Cc1cccc(N2C(=NC(=O)c3ccccc3)SC3CS(=O)(=O)CC32)c1` (stereo not drawn), which Potency is on record?
**A.** The Potency was inconclusive [activator, full curve, poor fit].

**Q.** `Cn1cc(/C=C/c2cc[n+](C)cc2)c2cc(F)ccc21` was tested. Which Potency did it give?
**A.** Its Potency is inconclusive [inhibitor, partial curve].

**Q.** With `CC(=O)[C@@H]1[C@H]2[C@H](C(=O)[C@H]3OC[C@@H]2O3)[C@H]2C=Cc3ccccc3N21` as the compound, how does the Potency read?
**A.** The Potency was “inactive”.

**Q.** For `COc1ccco1`, which Potency is on record?
**A.** Its Potency is “inactive”.

**Q.** With `O=C1CC(=C2c3ccccc3-c3ccccc32)C(=O)N1CCCCN1CCN(c2ccccc2)CC1` as the compound, how does the Potency read?
**A.** The Potency was inconclusive [inhibitor, partial curve].

**Q.** With `Cc1ccc2c(Cl)c(C(=O)N/N=C/c3cccn3C)sc2c1` as the compound, how does the Potency read?
**A.** The Potency was inconclusive [activator, full curve].

**Q.** Which Potency does the source give for `COC(=O)c1cc(=O)c2cccc(OC)c2[nH]1` here?
**A.** The Potency was inconclusive [activator, partial curve].

**Q.** Which Potency does the source give for `N=c1oc2ccc3ccccc3c2cc1-c1nnc2n1CCCCC2` here?
**A.** Its Potency is inconclusive [activator, partial curve].

**Q.** For `CCN(CC)c1ccc(/C=N/NC(=S)NCc2ccc(OC)cc2)cc1`, which Potency is on record?
**A.** The Potency was “inactive”.

**Q.** For `CCOC(=O)CCc1c(C)c2ccc3c(c2oc1=O)CN(CCCO)CO3`, which Potency is on record?
**A.** The Potency was inconclusive [activator, partial curve].
